# Source: patent US20250270341A1 (Alector, published 2025)
# T1: Cyno CD98hc ECD Avi-His (cynomolgus macaque, UniProt P08195 105-529 (human entry))
# T1 construct: biotinylated on the Avi tag where captured on streptavidin; also called Cyno CD98-AVI-His; Cyno CD98hc-AVI-His
# T1 chain: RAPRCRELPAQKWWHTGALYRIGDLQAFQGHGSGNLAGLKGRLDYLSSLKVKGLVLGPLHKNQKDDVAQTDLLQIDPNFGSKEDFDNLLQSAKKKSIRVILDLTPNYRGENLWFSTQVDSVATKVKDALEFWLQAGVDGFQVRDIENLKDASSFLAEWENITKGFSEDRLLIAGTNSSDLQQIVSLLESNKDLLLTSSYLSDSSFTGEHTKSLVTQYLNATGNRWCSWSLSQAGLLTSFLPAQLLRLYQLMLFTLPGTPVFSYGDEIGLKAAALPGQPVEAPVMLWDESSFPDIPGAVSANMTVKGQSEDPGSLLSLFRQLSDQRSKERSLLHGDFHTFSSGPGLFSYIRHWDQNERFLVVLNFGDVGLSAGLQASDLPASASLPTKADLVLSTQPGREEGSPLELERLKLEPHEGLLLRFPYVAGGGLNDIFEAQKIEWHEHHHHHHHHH
# T2: huCD98hc ECD Avi-His (human, UniProt P08195 105-529)
# T2 construct: biotinylated on the Avi tag where captured on streptavidin; also called Human CD98-AVI-His; Human CD98hc-AVI-His
# T2 sequence: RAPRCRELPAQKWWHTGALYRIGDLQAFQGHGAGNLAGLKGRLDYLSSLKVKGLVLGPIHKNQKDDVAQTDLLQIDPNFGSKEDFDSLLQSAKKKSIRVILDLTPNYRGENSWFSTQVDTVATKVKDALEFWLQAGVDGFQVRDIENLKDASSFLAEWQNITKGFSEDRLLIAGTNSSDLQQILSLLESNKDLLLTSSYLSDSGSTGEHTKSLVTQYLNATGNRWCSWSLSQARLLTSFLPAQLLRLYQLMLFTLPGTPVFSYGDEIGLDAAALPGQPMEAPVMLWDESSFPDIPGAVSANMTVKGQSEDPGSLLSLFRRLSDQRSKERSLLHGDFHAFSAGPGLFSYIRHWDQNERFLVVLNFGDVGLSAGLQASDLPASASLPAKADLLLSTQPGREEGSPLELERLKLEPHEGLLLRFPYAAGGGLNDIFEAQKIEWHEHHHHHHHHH
# Tests used:
# Cyno CD98hc ECD Avi-His = biological target: T1, Cyno CD98hc ECD Avi-His; assay: SPR, Carterra LSA, antibody immobilized
# huCD98hc ECD Avi-His = biological target: T2, huCD98hc ECD Avi-His; assay: SPR, Carterra LSA, antibody immobilized
Binder,Kd (Cyno CD98hc ECD Avi-His) [nM],Kd (huCD98hc ECD Avi-His) [nM]
CD98hc.04.010 (2+1 bispecific antibody) (bispecific antibody) heavy 1: EVRLLESGGGLVQPGGSLRLSCAASGFTFSNYAMGWVRQAPGKGLEWVSAISGSGGSTYYADSVKGRFTTSRDDSKNALYLQMNSLRAEDTAVYYCARGGPGWYAADVWGQGTTVTVSSASTKGPSVFPLAPSSKSTSGGTAALGCLVKDYFPEPVTVSWNSGALTSGVHTFPAVLQSSGLYSLSSVVTVPSSSLGTQTYICNVNHKPSNTKVDKKV[here human IgG1 Fc with changes without letters]GGGGSGGGGSGGGGSQVQLQQSGAELMKPGASVKISCKATGYTFSTYWIEWVKQRPGHGLEWIGEILPGSGTTTYNEKFKGKATFTADTSSNTAYMQLSSLTSEDSAVYYCARRTVYYRYEGIDYWGQGTTLTVSSGGSEGKSSGSGSESKSTGGSQIVLTQSPAIMSASPGEKVTITCSASSSVSYMFWFQQRPGTSPKLWIYTTSNLASGVPARFSGSGSGTSYSLTISRMEAEDAATYYCQQKNNYPFTFGSGTKLEIK heavy 2: EVRLLESGGGLVQPGGSLRLSCAASGFTFSNYAMGWVRQAPGKGLEWVSAISGSGGSTYYADSVKGRFTTSRDDSKNALYLQMNSLRAEDTAVYYCARGGPGWYAADVWGQGTTVTVSS[here human IgG1 constant region with changes without letters] light: DIQMTQSPSSLSASVGDRVTITCRASQSISSYLNWYQQKPGKAPKLLIYAASSLQSGVPSRFSGSGSGTDFTLTISSLQPEDFATYYCQQADLPAFAFGGGTKVEIKRTVAAPSVFIFPPSDEQLKSGTASVVCLLNNFYPREAKVQWKVDNALQSGNSQESVTEQDSKDSTYSLSSTLTLSKADYEKHKVYACEVTHQGLSSPVTKSFNRGEC,5.2,21
CD98hc.04.012 (2+1 bispecific antibody) (bispecific antibody) heavy 1: EVRLLESGGGLVQPGGSLRLSCAASGFTFSNYAMGWVRQAPGKGLEWVSAISGSGGSTYYADSVKGRFTTSRDDSKNALYLQMNSLRAEDTAVYYCARGGPGWYAADVWGQGTTVTVSSASTKGPSVFPLAPSSKSTSGGTAALGCLVKDYFPEPVTVSWNSGALTSGVHTFPAVLQSSGLYSLSSVVTVPSSSLGTQTYICNVNHKPSNTKVDKKV[here human IgG1 Fc with changes without letters]GGGGSGGGGSGGGGSQVQLQQSGADLVRPGDSVKISCKGSGYTFTDNTLHWVKQSHAKSLEWIGVISPYYGDASYNQKFKGKATMTVDKSSSTAYMELARLTSEDSAIYYCARVGGRLRLGYYFDHWGQGTTLTVSSGGSEGKSSGSGSESKSTGGSNIMMTQSPSSLAVSAGEKVTMNCKSSQSVLSSSNQKNYLAWYQQKPGQSPKLLIYWASTRESGVPARFTGSGSGTDFSLTITSVQAEDLAVYYCLQYLSSYTFGGGTKLEIK heavy 2: EVRLLESGGGLVQPGGSLRLSCAASGFTFSNYAMGWVRQAPGKGLEWVSAISGSGGSTYYADSVKGRFTTSRDDSKNALYLQMNSLRAEDTAVYYCARGGPGWYAADVWGQGTTVTVSS[here human IgG1 constant region with changes without letters] light: DIQMTQSPSSLSASVGDRVTITCRASQSISSYLNWYQQKPGKAPKLLIYAASSLQSGVPSRFSGSGSGTDFTLTISSLQPEDFATYYCQQADLPAFAFGGGTKVEIKRTVAAPSVFIFPPSDEQLKSGTASVVCLLNNFYPREAKVQWKVDNALQSGNSQESVTEQDSKDSTYSLSSTLTLSKADYEKHKVYACEVTHQGLSSPVTKSFNRGEC,140,17
CD98hc.04.013 (2+1 bispecific antibody) (bispecific antibody) heavy 1: EVRLLESGGGLVQPGGSLRLSCAASGFTFSNYAMGWVRQAPGKGLEWVSAISGSGGSTYYADSVKGRFTTSRDDSKNALYLQMNSLRAEDTAVYYCARGGPGWYAADVWGQGTTVTVSSASTKGPSVFPLAPSSKSTSGGTAALGCLVKDYFPEPVTVSWNSGALTSGVHTFPAVLQSSGLYSLSSVVTVPSSSLGTQTYICNVNHKPSNTKVDKKV[here human IgG1 Fc with changes without letters]GGGGSGGGGSGGGGSEVQLVESGGDLGMPGGSLKLSCAASGFALSGYDMSWVRQTPDKRLEWVAYLSSGGGSTYYPYTVKGRFTISRDNAQNTLYLQMSSLKSEDTAIYYCARHSEVRPWFGYWGQGTLVTVSAGGSEGKSSGSGSESKSTGGSDIVMSQSPSSLAVSVGEKVTLTCKSSQSLLYSGNQKNYLAWYQQNPGQSPKLLIYWASTRESGVPDRFTGSGSGTDFTLTISSVKAEDLAVYYCQQYYTYPPTFGAGTKLGLK heavy 2: EVRLLESGGGLVQPGGSLRLSCAASGFTFSNYAMGWVRQAPGKGLEWVSAISGSGGSTYYADSVKGRFTTSRDDSKNALYLQMNSLRAEDTAVYYCARGGPGWYAADVWGQGTTVTVSS[here human IgG1 constant region with changes without letters] light: DIQMTQSPSSLSASVGDRVTITCRASQSISSYLNWYQQKPGKAPKLLIYAASSLQSGVPSRFSGSGSGTDFTLTISSLQPEDFATYYCQQADLPAFAFGGGTKVEIKRTVAAPSVFIFPPSDEQLKSGTASVVCLLNNFYPREAKVQWKVDNALQSGNSQESVTEQDSKDSTYSLSSTLTLSKADYEKHKVYACEVTHQGLSSPVTKSFNRGEC,76,32
CD98hc.04.022 (2+1 bispecific antibody) (bispecific antibody) heavy 1: EVRLLESGGGLVQPGGSLRLSCAASGFTFSNYAMGWVRQAPGKGLEWVSAISGSGGSTYYADSVKGRFTTSRDDSKNALYLQMNSLRAEDTAVYYCARGGPGWYAADVWGQGTTVTVSSASTKGPSVFPLAPSSKSTSGGTAALGCLVKDYFPEPVTVSWNSGALTSGVHTFPAVLQSSGLYSLSSVVTVPSSSLGTQTYICNVNHKPSNTKVDKKV[here human IgG1 Fc with changes without letters]GGGGSGGGGSGGGGSEVQLQQSGAELVKPGASVKLSCTASGFNIKDTFMHWMKQRPEQGLEWIGRIDPANANTRYDPKFQGKATITTDTSSNTAYLQLSSLTSEDTAVYYCARDVYYDVWGAGTTVTVSSGGSEGKSSGSGSESKSTGGSDILMTQSPSSMSVSLGDTVTITCHASQGISSNIGWLQQKPGRSFKGLIYHGSNLEDGVPSRFTGSGSGTDYSLTISGLESEDFADYYCVQYAQFPRTFGGGTKLEIQ heavy 2: EVRLLESGGGLVQPGGSLRLSCAASGFTFSNYAMGWVRQAPGKGLEWVSAISGSGGSTYYADSVKGRFTTSRDDSKNALYLQMNSLRAEDTAVYYCARGGPGWYAADVWGQGTTVTVSS[here human IgG1 constant region with changes without letters] light: DIQMTQSPSSLSASVGDRVTITCRASQSISSYLNWYQQKPGKAPKLLIYAASSLQSGVPSRFSGSGSGTDFTLTISSLQPEDFATYYCQQADLPAFAFGGGTKVEIKRTVAAPSVFIFPPSDEQLKSGTASVVCLLNNFYPREAKVQWKVDNALQSGNSQESVTEQDSKDSTYSLSSTLTLSKADYEKHKVYACEVTHQGLSSPVTKSFNRGEC,38,22
CD98hc.04.045 (2+1 bispecific antibody) (bispecific antibody) heavy 1: EVRLLESGGGLVQPGGSLRLSCAASGFTFSNYAMGWVRQAPGKGLEWVSAISGSGGSTYYADSVKGRFTTSRDDSKNALYLQMNSLRAEDTAVYYCARGGPGWYAADVWGQGTTVTVSSASTKGPSVFPLAPSSKSTSGGTAALGCLVKDYFPEPVTVSWNSGALTSGVHTFPAVLQSSGLYSLSSVVTVPSSSLGTQTYICNVNHKPSNTKVDKKV[here human IgG1 Fc with changes without letters]GGGGSGGGGSGGGGSQIQLVQSGPELKKPGETVKISCKASGYSITNFGMNWVKQAPGKGLKWMGWVNTYTGEPTYADDFKGRFAFSLETSASTASLQINNLKNEDTATYFCTRSVITYTMDYWGQGTSVTVSSGGSEGKSSGSGSESKSTGGSDIQLTQSPSSLSASLGERVSLTCRASQEISGYLSWLQQKPDGTIKRLIYAASTLDSGVPKRFSGSRSGSDYSLTISSLESEDFADYYCLQYASYPRTFGGGTKVEIK heavy 2: EVRLLESGGGLVQPGGSLRLSCAASGFTFSNYAMGWVRQAPGKGLEWVSAISGSGGSTYYADSVKGRFTTSRDDSKNALYLQMNSLRAEDTAVYYCARGGPGWYAADVWGQGTTVTVSS[here human IgG1 constant region with changes without letters] light: DIQMTQSPSSLSASVGDRVTITCRASQSISSYLNWYQQKPGKAPKLLIYAASSLQSGVPSRFSGSGSGTDFTLTISSLQPEDFATYYCQQADLPAFAFGGGTKVEIKRTVAAPSVFIFPPSDEQLKSGTASVVCLLNNFYPREAKVQWKVDNALQSGNSQESVTEQDSKDSTYSLSSTLTLSKADYEKHKVYACEVTHQGLSSPVTKSFNRGEC,55,81
